# Reference: PubChem BioAssay AID504332 (National Center for Advancing Translational Sciences (NCATS), 2011)
# The whole screen tested about 350,000 compounds, of which about 31,000 (8.9%) were called active. This list was built around the results that the source calls inconclusive (neither active nor inactive); the mix of calls is not that of the screen. Calls come from the whole dose curve; as a rule, active = well fitted inhibition curve with a large enough effect; inconclusive = small, poorly fitted or top-dose-only effect; inactive = no such curve, though single readings can be large or run the other way. A potency beside an inconclusive call is a rough fit, not a confirmed value.
# Biological target: Histone-lysine N-methyltransferase EHMT2 (Homo sapiens) (UniProt Q96KQ7)
# Chain of UniProt Q96KQ7 (Q96KQ7 whole entry, looked up): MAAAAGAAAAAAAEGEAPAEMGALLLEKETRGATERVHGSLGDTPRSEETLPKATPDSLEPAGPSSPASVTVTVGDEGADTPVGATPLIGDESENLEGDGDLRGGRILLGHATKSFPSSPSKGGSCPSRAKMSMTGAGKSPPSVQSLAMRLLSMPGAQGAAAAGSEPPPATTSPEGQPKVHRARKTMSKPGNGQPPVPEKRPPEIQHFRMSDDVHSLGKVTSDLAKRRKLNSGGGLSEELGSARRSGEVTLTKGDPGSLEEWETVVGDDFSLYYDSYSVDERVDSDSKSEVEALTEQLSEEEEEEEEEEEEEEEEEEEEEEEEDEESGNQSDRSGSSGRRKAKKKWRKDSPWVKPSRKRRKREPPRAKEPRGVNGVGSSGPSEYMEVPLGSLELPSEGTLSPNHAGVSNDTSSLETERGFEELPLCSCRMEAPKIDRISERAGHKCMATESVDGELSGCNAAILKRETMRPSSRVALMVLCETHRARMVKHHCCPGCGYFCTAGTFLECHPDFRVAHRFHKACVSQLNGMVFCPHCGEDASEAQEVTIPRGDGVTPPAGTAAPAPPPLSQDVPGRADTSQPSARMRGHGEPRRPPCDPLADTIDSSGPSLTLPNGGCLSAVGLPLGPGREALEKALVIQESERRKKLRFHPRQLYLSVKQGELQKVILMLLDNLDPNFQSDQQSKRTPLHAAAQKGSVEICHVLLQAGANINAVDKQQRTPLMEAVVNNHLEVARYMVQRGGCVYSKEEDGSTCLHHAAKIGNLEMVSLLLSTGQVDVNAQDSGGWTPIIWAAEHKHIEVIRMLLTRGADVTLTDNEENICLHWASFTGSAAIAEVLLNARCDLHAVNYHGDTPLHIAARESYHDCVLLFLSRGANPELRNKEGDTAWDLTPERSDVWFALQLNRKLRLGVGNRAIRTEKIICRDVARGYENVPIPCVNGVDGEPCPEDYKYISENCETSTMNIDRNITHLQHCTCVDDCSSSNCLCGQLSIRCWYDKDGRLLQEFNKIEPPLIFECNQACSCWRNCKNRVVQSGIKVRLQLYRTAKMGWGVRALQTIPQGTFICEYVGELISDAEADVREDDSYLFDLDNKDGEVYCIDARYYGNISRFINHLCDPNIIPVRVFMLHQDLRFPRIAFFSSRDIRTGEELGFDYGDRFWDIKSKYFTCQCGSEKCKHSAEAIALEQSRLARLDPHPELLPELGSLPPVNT
# Assay: qHTS Assay for Inhibitors of Histone Lysine Methyltransferase G9a; note: nearly all actives have a fitted effect of over 75% in size
# Settings: G9a H3K9 monomethylation, AlphaScreen, 2 h; activity, negative = inhibition: at 59 µM (top of the series) unless noted
# Method in brief: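 G9a (20 nM) was preincubated 15 min with compound, then reacted 2 h at room temperature with 500 nM biotin-H3K9 peptide and 20 µM SAM. Monomethyl-H3K9 detected by AlphaScreen using anti-H3K9me1 antibody.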
# % is set by controls: 0 for no effect and ±100 for the full control effect; potency is the fitted concentration of half-maximal effect; tags give direction and shape of the fitted curve.
SMILES,Potency,"activity, negative = inhibition"
COc1ccc(OC)c(NS(=O)(=O)c2cc3c(cc2Cl)N(C(C)=O)CCO3)c1,"inconclusive: 8.91 µM [inhibitor, partial curve]",
COC(=O)CSC1=C(C#N)C(c2ccsc2)CC(=O)N1 (configuration not stated),"inconclusive: 28.2 µM [inhibitor, single point]",
Cn1cccc1/C=C(\C#N)C(N)=S,active: 50.1 µM,
CC(=O)NC1(C(F)(F)F)C(=O)Nc2c1c(=O)n(C)c(=O)n2C (configuration not stated),"inconclusive: 89.1 µM [inhibitor, single point]",
CCOC(=O)c1c(C)oc2nc(C)nc(Nc3ccc(C)c(Cl)c3)c12,inactive,
Cc1c(Cl)ccc2sc(N3CCN(C(=O)C(C)C)CC3)nc12,"inconclusive: 25.1 µM [inhibitor, partial curve, poor fit]",
CCN(CC)S(=O)(=O)c1ccc(N2CCOCC2)c(NC(=O)c2cc([N+](=O)[O-])ccc2Cl)c1,"inconclusive: 8.91 µM [inhibitor, partial curve, poor fit]",
Cc1cc(C)c2c(n1)nn1c(NCCN3CCOCC3)cc(C)nc21,"inconclusive: 1.58 µM [inhibitor, full curve, poor fit]",
O=C(NCc1ccccc1Cl)c1ccc2c(c1)NC(=O)C(CS(=O)(=O)Cc1ccc(F)cc1Cl)N2 (configuration not stated),"inconclusive: 20 µM [inhibitor, partial curve, poor fit]",
Cc1oc(-c2cccc(Cl)c2)nc1CSc1nncn2c1cc1occc12,inactive,
CCNc1nc(NCC)nc(SCCOC(=O)COc2ccc(Cl)cc2Cl)n1,inactive,
CN(C)c1ccc(CN(Cc2ccco2)C(=O)c2ccc(C(C)(C)C)cc2)cc1,active: 11.2 µM,
CC(C)(C)c1ccc(C(=O)CSc2nc3ccccc3c(=O)[nH]2)cc1,"inconclusive: 25.1 µM [inhibitor, single point]",
CCN1C(=O)N(C)C(N(O)C(=O)NC)C1(C)C (configuration not stated),"inconclusive: 89.1 µM [inhibitor, partial curve, poor fit]",
O=S(=O)(c1ccc(N2CC=C(c3ccccc3)CC2)nc1)N1CCCC1,"inconclusive: 3.98 µM [inhibitor, single point]",
CC1CCCC(NC(=O)Cn2cc([N+](=O)[O-])ccc2=O)C1C (configuration not stated),"inconclusive: 7.08 µM [inhibitor, full curve]",
CCN1CCN(c2ccc(S(=O)(=O)N3CCOCC3)cc2NC(=O)c2cc(Cl)nc3ccccc23)CC1,active: 44.7 µM,
COc1ccc(N=C(C)C2=C(O)COC2=O)cc1,active: 6.31 µM,
N#Cc1ccccc1Sc1ccccc1C(=O)NCC(c1ccco1)N1CCCCC1 (configuration not stated),"inconclusive: 3.98 µM [inhibitor, partial curve, poor fit]",
COc1ccc(NC2CCCN(C(=O)c3cccc(N(C)C)c3)C2)cc1 (configuration not stated),,inactive: 4.02% [at 12.7 µM]
COc1ccc(NC(=O)/C(C#N)=C\c2ccc(-c3cccc(C(=O)O)c3C)o2)cc1,"inconclusive: 25.1 µM [inhibitor, single point]",
COc1ccc(C(CNC(=O)Cc2ccccc2)N2CCCCC2)cc1 (configuration not stated),"inconclusive: 7.94 µM [inhibitor, partial curve, poor fit]",
CC(Sc1nnc2ccc3ccccc3n12)C(=O)Nc1ccc(Cl)cc1 (configuration not stated),"inconclusive: 35.5 µM [inhibitor, single point]",
C=CC(=O)NC(C)(C)Cc1ccccc1,,inactive: -2.03% [at 12.7 µM]

SMILES,Potency,"activity, negative = inhibition"
CCCc1cc(=O)[nH]c(Nc2cc(C)ccc2OC)n1,inactive,
COC(=O)C1=C(O)/C(=C\c2cc(C)n(-c3ccccc3F)c2C)N=C1C,"inconclusive: 20 µM [inhibitor, partial curve, poor fit]",
CCOC(=O)C(NC(C)=O)C(=O)Nc1c(C)cccc1C (configuration not stated),"inconclusive: 0.355 µM [inhibitor, partial curve, poor fit]",
CCN1CCN(Cc2oc(CO)cc(=O)c2O)CC1,active: 1.78 µM,
COc1ccc(/C=N/Nc2cc(N(C)C)nc(N(C)C)n2)cc1,active: 4.47 µM,
CC(=O)Nc1cc2nc(C)n(Cc3ccccc3[N+](=O)[O-])c2nc1C,inactive,
O=c1ccc2ccc(Oc3ccc(Cl)cc3[N+](=O)[O-])cc2o1,active: 31.6 µM,
Cc1cc(NC(=O)n2ncc3c(C)cccc32)ccc1Br,"inconclusive: 25.1 µM [inhibitor, partial curve, poor fit]",
COc1ccc(Cl)cc1NC(=O)COC(=O)C1COc2ccccc2O1 (configuration not stated),inactive,
CCCc1nnc(SCC(=O)Nc2cccc(Cl)c2Cl)o1,inactive,
CN(NC(=O)CN1C(=O)c2ccccc2C1=O)C1=NS(=O)(=O)c2ccccc21,active: 79.4 µM,
COc1ccccc1CNC(=O)c1ccccc1NC(=O)C1=C(C)OCCS1,"inconclusive: 25.1 µM [inhibitor, full curve]",
CSc1ccc(S(=O)(=O)N2CCC(C(=O)NC3CC3)CC2)cc1,active: 35.5 µM,
COc1ccc(OC)c(N2C(=O)[C@@H]3C(c4ccccc4Cl)=NO[C@@H]3C2=O)c1,,inactive: 25.7% [at 2.33 µM]
Cc1cccc(N2C(=O)CC(N(O)c3ccccc3)C2=O)c1 (configuration not stated),"inconclusive: 89.1 µM [inhibitor, single point]",
Cn1c(=O)c2c(nc(N3CCOCC3)n2C)n(C)c1=O,"inconclusive: 39.8 µM [inhibitor, full curve]",
CCCCN1C(=O)/C(=C/C=C2\SCCN2C)SC1=S,active: 12.6 µM,
Cc1cc(-c2n[nH]c(=S)n2/N=C/C=C/c2ccccc2)n[nH]1,active: 1.41 µM,
CS(=O)(=O)c1cccc(C(=O)N(CCc2ccccc2)Cc2cccs2)c1,active: 79.4 µM,
CC(C)CNC(=O)C1CC(=O)OC12CCCCC2 (configuration not stated),"inconclusive: 79.4 µM [inhibitor, single point]",
COc1ccc(OCC(=O)c2c(O)c3ccccc3oc2=O)cc1,active: 3.16 µM,
O=C1CC(c2ccccc2)Sc2ccccc2N1Cc1ccc(F)cc1 (configuration not stated),inactive,
O=C(O)C(c1ccccc1)N1C(=O)/C(=C\c2ccc(-c3ccccc3Cl)o2)SC1=S (configuration not stated),active: 39.8 µM,
